# Assay results from paper PMC4336329 (PLoS ONE, 2015).
# The campaign covered roughly 310,000 compounds. About 14,000 (4.5%) showed an effect of 50% or more. Effects have a minus sign here. The list shows a part of the results.
# Target: human ether-à-go-go-related gene (hERG) potassium channel (human, UniProt Q12809)
# Test: primary screen, population patch clamp on CHO cells stably expressing hERG
# 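Note: peak tail current of the secondary pulse compared with the same well before compound.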
# Sequence of human ether-à-go-go-related gene (hERG) potassium channel (Q12809 whole entry, looked up): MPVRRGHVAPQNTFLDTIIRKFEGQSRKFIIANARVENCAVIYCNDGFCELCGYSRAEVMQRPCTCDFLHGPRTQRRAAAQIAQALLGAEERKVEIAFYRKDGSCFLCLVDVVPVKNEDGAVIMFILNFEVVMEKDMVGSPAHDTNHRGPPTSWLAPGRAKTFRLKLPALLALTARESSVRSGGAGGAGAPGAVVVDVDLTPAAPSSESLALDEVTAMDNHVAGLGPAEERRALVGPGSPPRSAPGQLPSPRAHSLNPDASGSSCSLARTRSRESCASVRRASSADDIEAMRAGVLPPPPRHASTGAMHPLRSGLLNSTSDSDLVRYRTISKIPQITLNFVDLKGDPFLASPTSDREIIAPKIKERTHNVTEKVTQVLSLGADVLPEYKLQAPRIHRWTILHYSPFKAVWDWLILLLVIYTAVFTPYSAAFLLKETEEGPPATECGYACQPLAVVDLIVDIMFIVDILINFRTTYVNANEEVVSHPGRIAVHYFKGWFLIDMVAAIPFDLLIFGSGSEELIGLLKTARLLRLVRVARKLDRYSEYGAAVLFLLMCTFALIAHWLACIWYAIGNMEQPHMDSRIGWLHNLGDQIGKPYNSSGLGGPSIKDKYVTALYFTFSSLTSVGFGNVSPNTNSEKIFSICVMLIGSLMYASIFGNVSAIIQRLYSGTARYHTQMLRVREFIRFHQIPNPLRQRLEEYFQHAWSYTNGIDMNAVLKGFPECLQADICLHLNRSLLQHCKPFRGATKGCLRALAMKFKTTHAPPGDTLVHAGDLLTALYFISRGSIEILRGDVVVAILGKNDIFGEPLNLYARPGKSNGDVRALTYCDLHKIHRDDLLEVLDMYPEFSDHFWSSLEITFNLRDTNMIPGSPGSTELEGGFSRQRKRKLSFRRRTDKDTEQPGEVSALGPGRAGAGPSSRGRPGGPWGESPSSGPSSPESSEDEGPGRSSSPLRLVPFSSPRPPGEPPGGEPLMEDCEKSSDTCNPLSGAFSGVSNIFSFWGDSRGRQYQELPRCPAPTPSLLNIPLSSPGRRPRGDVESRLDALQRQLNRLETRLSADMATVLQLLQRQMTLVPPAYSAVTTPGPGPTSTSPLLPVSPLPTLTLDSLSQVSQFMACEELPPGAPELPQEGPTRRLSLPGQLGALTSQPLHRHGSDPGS
row,SMILES,"hERG current change (%, negative = inhibition) at 10uM"
1,Cc1ccc(O)c(NC(=O)c2cc(-c3ccco3)on2)c1,8.04%
2,COc1ccc(NC(=O)/C(C#N)=C/c2ccc(-c3ccccc3C(=O)O)o2)cc1,11.8%
3,Cc1ccc(CNC(=O)C2CC(c3ccccc3[N+](=O)[O-])=NO2)cc1 (stereo not shown),-36.1%
4,CCCOc1ccc(OCCSc2ncccn2)cc1,-2.55%
5,CSCCC(NC(=O)c1ccco1)C(=O)NCC1CCCCC1 (stereo not shown),-7.41%
6,COc1ccc(NC(=O)CN(C)CC(=O)Nc2sc3c(c2C(N)=O)CCC3)cc1,-79%
7,CC(=O)C1=C(C)NC2=C(C(=O)CC(C)(C)C2)C1C (stereo not shown),47.1%
8,O=C(CSc1nc2[nH]c(=O)[nH]c(=O)c2s1)Nc1cccc(F)c1,9.84%
9,CCOc1ccc(-c2cn(-c3cccc(SC)c3)c(=O)[nH]2)cc1,-6.98%
10,Cc1c(CC(=O)NCC(=O)N[C@H](Cc2ccccc2)C(=O)O)c(=O)oc2cc(O)ccc12,7.77%
11,O=C(O)CN1CCCC1=Nc1ccccc1,1.04%
12,O=C(NC1CCCC1)C(c1ccccc1)N(Cc1cccnc1)C(=O)Cc1cccs1 (stereo not shown),7.69%
13,CCOC(=O)C1=C(CSc2nc(-c3ccccc3)ccc2C#N)OC(N)=C(C#N)C1c1cccnc1 (stereo not shown),-4.37%
14,COc1cccc(NC(=O)c2ccc(S(=O)(=O)N(C)C)cc2)c1,-3.75%
15,CC(=O)N(C)c1ccc(NC(=S)NCC(C)C)cc1,3.87%
16,O=C1CCN(Cc2ccccc2)CCN1[C@H](CO)Cc1ccccc1,14.5%
17,Cc1ccccc1C(=O)Nc1cccc(NC(=O)c2ccccc2[N+](=O)[O-])c1,10.8%
18,COc1ccc(S(=O)(=O)N2CC(O)CC2C(=O)OCc2nc3sc(C)c(C)c3c(=O)[nH]2)cc1 (stereo not shown),-12.1%
19,Cc1cc(C(=O)COC(=O)c2cccnc2Cl)c(C)n1-c1c(C)n(C)n(-c2ccccc2)c1=O,10%
20,CCOC(=O)N1CCN(C(=O)c2cc(OC)c(OC)c(OC)c2)CC1,8.92%
21,Cc1ccccc1Cn1c(=O)n(-c2ccccc2)c(=O)c2ccc(C(=O)NCc3ccco3)cc21,-8.57%
22,CC(C)(C)NS(=O)(=O)c1ccc(NC(=O)C(Sc2ccccc2)c2ccccc2)cc1 (stereo not shown),3.56%

row,SMILES,"hERG current change (%, negative = inhibition) at 10uM"
1,CCC(C)C1(CC)C(=O)NC(=O)N=C1N (stereo not shown),36.1%
2,CCOC(=O)c1c(NC(=O)C2COc3ccccc3O2)sc(C(C)=O)c1C (stereo not shown),2.83%
3,O=C(Nc1ccc(S(=O)(=O)NCCc2ccccc2)cc1)c1ccco1,-0.611%
4,CC(NC(=O)C1CCC(C(=O)NC(C)c2ccccc2)CC1)c1ccccc1 (stereo not shown),22.9%
5,Cc1noc(C(=O)NCC2CCCO2)c1Cl (stereo not shown),19.2%
6,CCCCN(Cc1ccco1)S(=O)(=O)c1ccc(-c2ccc(=O)[nH]n2)s1,-27.7%
7,COc1ccc(C(=O)Nc2ccc(N3CCN(C)CC3)cc2)cc1OC,-11.9%
8,CC1(C)CC(NC(=O)C2CCC(=O)N(C3CC3)C2)CC(C)(C)C1 (stereo not shown),3.61%
9,CCN(CC(=O)Nc1c(F)cccc1F)C(=O)c1cc([N+](=O)[O-])ccc1N1CCCCC1,-10.6%
10,C=CCN(C(=O)c1cccc(C(F)(F)F)c1)C1(C(=O)Nc2ccccc2)CCN(C(C)C)CC1,-23.8%
11,COc1ccc(C(=O)c2c[nH]c(C(=O)NCCCN3CCOCC3)c2)cc1,9.08%
12,Cc1cccnc1NC(=S)NC(=O)/C=C/c1ccco1,11.5%
13,CCC(C)[C@H]1COCCS(=O)(=O)N1Cc1ccc(Br)cc1 (stereo partly shown),-18.5%
14,COc1ccc(CN2C(=O)c3ccccc3C2C(=O)NCCc2ccccc2)c(OC)c1 (stereo not shown),-9.73%
15,Cc1cccc(N2CCN(Cc3ccc(Br)o3)CC2)c1C,5.87%
16,COC(=O)Cn1cnc2c(nnn2-c2ccc(C)cc2)c1=O,10.4%
17,COc1ccc(S(=O)(=O)NCC2CCCN(C(=O)C3CCCC3)C2)cc1 (stereo not shown),-5.41%
18,COC(=O)c1[nH]nc(-c2ccccc2)c1-c1ccccc1,-5.99%
19,COc1ccc(S(=O)(=O)n2ccc(C)n2)cc1C,-1.78%
20,O=C(Cn1ccc([N+](=O)[O-])n1)N1CCCc2ccccc21,-20.4%
21,COc1cc(C(=O)Nc2ccc3c(c2)nc(C)n3C)cc(OC)c1OC,15.6%
22,O=c1ccc2cc(S(=O)(=O)Nc3ccc(F)cc3)ccc2o1,-4.44%

row,SMILES,"hERG current change (%, negative = inhibition) at 10uM"
1,CC(C)Cc1nnc(NC(=O)c2ccc([N+](=O)[O-])cc2)s1,12.7%
2,COC(=O)c1ccc2c(=O)n(CC3CCCO3)c(SCC(=O)Nc3ccccc3Cl)nc2c1 (stereo not shown),-13.7%
3,CC1(C)CC(NC(=O)C2CCCCC2)CC(C)(C)N1,9.64%
4,COc1ccc(-c2[nH]c(-c3ccc(C)cc3)nc2SCC(=O)NCc2ccco2)cc1OC,9.39%
5,Cc1ccc(C(=O)Nc2ccc(S(=O)(=O)N3CCOCC3)cc2)cc1,9.64%
6,Cc1cc(N2CCN(c3ccc([N+](=O)[O-])c4cccnc34)CC2)c2ccccc2n1,-64.3%
7,Cc1ccnc(NS(=O)(=O)c2ccc(C(C)(C)C)cc2)c1,-4.12%
8,O=C(c1c(F)cccc1F)N1CCN(c2ncccn2)CC1,1.98%
9,Cn1c(N)c(C(=O)CSc2nnc(C3CC3)n2N)c(=O)n(C)c1=O,-3.45%
10,CCOP(=O)(OCC)C(Nc1ccccn1)c1ccccc1 (stereo not shown),1.31%
11,N#Cc1c(-c2ccccc2Cl)cc(C2CC2)nc1N,12.2%
12,Nn1cnnc1SCC(=O)N(C1CCCCC1)C1CCCCC1,-0.865%
13,CCCCCn1c(=O)[nH]c2cc(C(=O)N3CCN(CC)CC3)ccc2c1=O,10.1%
14,COc1ccc(NC(=O)ON=C2c3ccccc3-c3ccccc32)cc1,0.872%
15,Br.CCOC(=O)c1c(CSC(=N)N)n(-c2ccc(C)cc2)c2cc(Br)c(OC(C)=O)cc12,-65.4%
16,CC(C)(C)NCCOc1ccc2ccccc2c1,9.51%
17,N#CCSc1nnc(COc2cccc3ccccc23)n1-c1ccccc1,6.77%
18,C/C(=N/NC(=O)C(O)(c1ccccc1)c1ccccc1)c1ccc([N+](=O)[O-])o1,-71.6%
19,O=C(Cn1c(=O)oc2ccccc21)N1CCCC1,14.4%
20,COc1ccc(-c2csc(Nc3ccc(C)cn3)n2)cc1OC,-6.35%
21,O=C(CN(Cc1ccco1)C(=O)CNS(=O)(=O)c1ccc(F)cc1)NCCc1ccccc1,-18.5%
22,CCN(CCn1cccn1)Cc1cn[nH]c1-c1ccc(OC)cc1F,-35.7%

row,SMILES,"hERG current change (%, negative = inhibition) at 10uM"
1,COC(=O)C(NC(=O)c1ccc(Cl)cc1)(Nc1nc(C)cs1)C(F)(F)F (stereo not shown),-8.63%
2,COc1cc(C(=S)N2CCOCC2)cc(OC)c1OC(=O)c1cc([N+](=O)[O-])c(C)c([N+](=O)[O-])c1,7.72%
3,CC(C)CN(C(=O)COC(=O)c1cnc(Cl)c(Cl)c1)c1c(N)n(Cc2ccccc2)c(=O)[nH]c1=O,5.35%
4,COc1cc(C2/C(=C(\O)c3ccc4c(c3)OCCO4)C(=O)C(=O)N2Cc2ccco2)cc(OC)c1OC (stereo not shown),15.8%
5,CCc1ccccc1NC(=O)c1cnc2scc(C)n2c1=O,-4.49%
6,CN(CC(=O)Nc1ccc(S(N)(=O)=O)cc1)Cc1ccccc1F,0.68%
7,Cc1ccc(NC2=C(Cl)C(=O)OC2NC(=O)c2ccccc2)cc1 (stereo not shown),0.653%
8,CCNC(=O)N1c2ccc(OC)cc2C(C)=CC1(C)C,9.38%
9,COc1cccc(C(=O)Nn2c(C)nnc2-n2nc(C)cc2C)c1,-16.8%
10,CCc1ccc(NC(=S)Nc2ccc(S(=O)(=O)Nc3ncccn3)cc2)cc1,14%
11,Cc1cccc(NC(=O)C2CCN(S(=O)(=O)c3cccs3)CC2)n1,-25%
12,CC(=O)Nc1cccc(/C(C)=N/NC(N)=S)c1,11.2%
13,Fc1ccc(CNCc2ccc(Br)cc2)cc1,-28.5%
14,COC(C)(C)c1cc(C(C)(C)C)nc(N)n1,7.95%
15,CCCc1cc(C(=O)N(C2CCCCC2)C2CCCCC2)no1,-18.7%
16,COc1ccccc1NC(=O)C1=C(C)Nc2nc(CCCO)nn2C1c1cccnc1 (stereo not shown),0.927%
17,CC(Nc1nc2ccccc2n2cnnc12)c1ccccc1 (stereo not shown),-32.3%
18,COc1ccc(OC)c(CNc2ccc([N+](=O)[O-])cc2C)c1,3.55%
19,O=C(Nc1ccc(-c2nc3ncccc3o2)cc1)c1ccc([N+](=O)[O-])o1,2.19%
20,CCOCCCNC(=O)C1CC(=O)N(C2CCCC2)C1 (stereo not shown),8.37%
21,CCn1c(/C=C/c2ccccc2C)nc2ccccc2c1=O,-10.7%
22,COc1ccc2oc(=Nc3cc(F)ccc3F)c(C(N)=O)cc2c1,-1.22%
